Results on 26 compounds are retold here after PubChem BioAssay AID1508624 (National Center for Advancing Translational Sciences (NCATS), 2021).

About 120 (0.25%) of roughly 48,000 compounds were called active. Another 4% or so got no clear call; they are omitted. Calls come from the whole dose curve; as a rule, active = well fitted activation curve with a large enough effect; inconclusive = small, poorly fitted or top-dose-only effect, or another doubt; inactive = no such curve, though single readings can be large or run the other way. The list shows a part of the results.

A short description of the experiment: Primary qHTS for Identification of Small Molecule Activators of Huntingtin-Antisense Promoter Activity. Note: nearly all actives have a fitted effect of over 55% in size. To be noted: HEK293 HTT-AS promoter firefly luciferase reporter (activity 0% = vehicle and -100% = no light), 24 h; series mostly up to 57.5 µM; activity change, positive = activation: at the top concentration. The essentials:
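Firefly luciferase signal from promoter-reporter HEK293 cells was scaled between vehicle (0%) and zero RLU (-100%). Compounds were tested at final concentrations of up to 57.5 uM over 24 h at 37 degrees C. PTC124 at 50 uM final served as control inhibitor.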
In the case of `CC1CCCN(CCCNC(=O)c2ccc3c(c2)N(Cc2cccc(Cl)c2)C(=O)c2ccccc2S3(=O)=O)C1` (stereo unspecified), the “activity change, positive = activation” value is inactive: -19.2%.
For `CC(C)Cc1nn2c(=O)cc(COC(=O)CNC(=O)c3ccc(C(C)(C)C)cc3)nc2s1` the value was inactive: 0.968%; for `Cc1ccc(C)c(CNC(=O)c2ccc3c(c2)nc2n3CCOC2)c1`, inactive: -7.4%; for `COC(=O)c1ccc(C2c3c(oc4ccc(C)cc4c3=O)C(=O)N2Cc2ccc3c(c2)OCO3)cc1` (stereo unspecified), inactive: -15%.
For `COc1cccc(CNC(=O)Cn2ccc3cc(S(=O)(=O)N4CCCC4)ccc32)c1OC` the value was inactive: -26.6%; for `COc1ncc(-c2ccc3nccc(-c4ccnnc4)c3c2)cc1NS(=O)(=O)c1ccc(F)cc1F`, inactive: -36.2%.
Regarding `Cc1ccc(S(=O)(=O)c2nnn3c2nc(NCc2ccc4c(c2)OCO4)c2sccc23)cc1`, the “activity change, positive = activation” value was inactive: -33.3%.
The same measure for `CCOC(=O)c1c(Nc2ccc(O)cc2)nnc(-c2ccccc2)c1-c1ccccc1`: inactive: -18.9%; for `O=C(Cc1ccccc1)Nc1c(C(=O)c2ccccc2)oc2ccccc12`: inactive: -5.07%; for `COc1ccc(CNC(=O)c2cc3cc4ccc(C)cc4nc3o2)cc1`: inactive: 1.06%.
The same measure for `CCc1ccc(C(=O)COC(=O)C(Cc2c[nH]c3ccccc23)NC(=O)c2ccc(CC)cc2)cc1` (stereo unspecified): inactive: 4.37%; for `Cc1ccc(NC(=O)CSc2nnc(-c3nnn(-c4ccc(F)cc4)c3C)o2)cc1Br`: inactive: -0.624%.
For `Cc1nc(-c2cccc(F)c2)sc1CCNC(=O)c1c(F)cccc1Cl` the value was inactive: -14.1%.
As for `CCCCn1c(=NC(=O)C(C)(C)Oc2ccc(Cl)cc2)c(C(=O)OCC)cc2c(=O)n3ccccc3nc21`, the “activity change, positive = activation” value was inactive: -14.2%.
Turning to `COc1cccc(N2CCN(C(=O)c3cc4c(s3)-c3c(C)cccc3OC4)CC2)c1`, the “activity change, positive = activation” value was inactive: -1.45%.
As for `COC(=O)Nc1nc2ccc(C(=O)c3ccc(F)cc3)cc2[nH]1`, the “activity change, positive = activation” value was inactive: -23.3%.
The same measure for `Cc1ccc(OCC(=O)Nc2nonc2-c2ccc(C)c(C)c2)cc1C`: inactive: 6.98%; for `Cc1ccc(NC(=O)CN2C(=O)COc3ccc(S(=O)(=O)N4CCCCCC4)cc32)cc1Cl`: inactive: -42.8%.
The same measure for `CCC(Sc1nc(-c2ccccc2)[nH]c1S(=O)(=O)c1ccc(C)cc1)C(=O)O` (stereo unspecified): inactive: -5.63%; for `O=C(NCCCN1CCN(c2ccc(F)cc2)CC1)c1cc2c(Cl)nc3ccccc3c2s1`: inactive: -10.3%.
The same measure for `Cc1cc(=O)n(Cc2ccc(F)cc2Cl)c2c1c(C)nn2C`: inactive: -20.9%.
Regarding `CC(C)c1ccc(-c2noc(SCC(=O)N3CCCCC3C)n2)cc1` (stereo unspecified), the “activity change, positive = activation” value is inactive: 5.28%.
For the compound `Cc1cc(C)cc(OC(=O)c2cc(-c3ccc(Cl)cc3)on2)c1`, the “activity change, positive = activation” value was inactive: 0.668%.
The same measure for `Cc1cccc(-c2nc(CCNC(=O)c3ccc(Br)o3)cs2)c1`: inactive: -17%; for `Cc1cc(C)cc(NC(=O)c2ccc3oc(=O)c(S(=O)(=O)c4ccc(F)cc4)cc3c2)c1`: inactive: -52.8%; for `COc1ccc(N2CCN(C(=O)C3CCN(S(=O)(=O)c4cccc5nonc45)CC3)CC2)cc1`: inactive: -29.5%.
